Measured values reported in PubChem BioAssay AID2147 (National Center for Advancing Translational Sciences (NCATS), 2009).
In all, about 230,000 compounds went through this assay and about 3,600 (1.6%) were called active. The inconclusive results got no clear call from the source; some entries with a clear call stand among them for comparison. The call rests on the fitted dose curve; in most records, active means well fitted inhibition curve with a large enough effect (not every such curve was filed as active); inconclusive means small, poorly fitted or top-dose-only effect, or another doubt; inactive means no such curve, though single readings can be large or run the other way. Where the call is inconclusive, the potency comes from a doubtful curve fit.

target: Lysine-specific demethylase 4E (Homo sapiens) (UniProt B2RXH2); experiment: qHTS Assay for Inhibitors of Human Jumonji Domain Containing 2E (JMJD2E); conditions: JMJD2E catalytic domain, FDH-coupled NADH fluorescence (FDH is formaldehyde dehydrogenase); series mostly up to 57.1 µM
Further: nearly all actives have a fitted effect of over 50% in size.
Potency means the concentration at half of the fitted maximal effect; tags describe the fitted curve by direction and shape.

Chain of UniProt B2RXH2 (B2RXH2 whole entry, looked up, the tested form may be a part): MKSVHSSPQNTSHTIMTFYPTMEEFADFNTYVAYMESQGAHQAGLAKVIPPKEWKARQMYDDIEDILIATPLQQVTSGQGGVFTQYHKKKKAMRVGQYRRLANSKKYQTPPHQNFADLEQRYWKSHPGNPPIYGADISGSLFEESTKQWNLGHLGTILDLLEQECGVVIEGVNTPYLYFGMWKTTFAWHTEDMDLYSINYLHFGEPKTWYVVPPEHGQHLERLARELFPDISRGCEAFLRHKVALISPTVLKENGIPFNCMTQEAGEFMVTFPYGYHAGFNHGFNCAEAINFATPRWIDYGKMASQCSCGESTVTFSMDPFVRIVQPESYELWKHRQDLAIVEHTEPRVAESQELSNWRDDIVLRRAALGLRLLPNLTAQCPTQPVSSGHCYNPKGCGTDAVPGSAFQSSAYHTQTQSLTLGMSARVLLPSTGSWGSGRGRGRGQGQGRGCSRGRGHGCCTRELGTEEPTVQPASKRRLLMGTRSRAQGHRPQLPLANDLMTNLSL

| Structure (SMILES) | Potency |
| --- | --- |
| OCCNc1ccc(Cl)cc1 | inactive |
| Cc1ccc2c(c1C)OC(=O)CC2(C)C | inconclusive: 39.8 µM [inhibitor, single point] |
| CN1/C(=C\C(=O)Nc2cccnc2)c2ccccc2CC1(C)C | inconclusive: 39.8 µM [inhibitor, single point] |
| O=C(CN1CCC(NC(=O)c2ccco2)CC1)Nc1ccccc1[N+](=O)[O-] | inactive |
| COCCNC(=O)CSc1nc(-c2ccccc2)cs1 | inactive |
| Cc1ccc2c(c1)C1(C(=O)N2)N2CCCC2C(C(=O)c2ccc3ccccc3c2)C12C(=O)Nc1ccccc12 (configuration not stated) | inactive |
| COCOc1ccc(OC)cc1C(=O)C1O[C@H]1c1ccc(OC)c(Br)c1 (some centres not stated) | inconclusive: 39.8 µM [inhibitor, single point] |
| CCN(CC)c1nc2ccccc2nc1C(C#N)C(=O)NCCc1ccccc1 (configuration not stated) | inconclusive: 35.5 µM [inhibitor, partial curve] |
| CC1CCCCN1S(=O)(=O)c1ccc(C(=O)Nc2sccc2C(N)=O)cc1 (configuration not stated) | inconclusive: 28.2 µM [inhibitor, partial curve] |
| O=C(NC(=S)Nc1ccc(N2CCOCC2)cc1)c1ccc2c(c1)OCCO2 | inactive |
| Cc1nn(CCC(N)=S)c2nc(-c3cccs3)cc(C(F)(F)F)c12 | inconclusive: 20 µM [inhibitor, single point] |
| OCCCCCNc1ncnc2ccccc12 | inconclusive: 35.5 µM [inhibitor, single point] |
| Cn1c(C(=O)NCC2CCCO2)cc2c(=O)n(C)c3ccccc3c21 (configuration not stated) | inconclusive: 35.5 µM [inhibitor, partial curve] |
| COc1cc(/C=N/Nc2nc(Nc3ccccc3)nc(N3CCCCC3)n2)ccc1OCC(=O)O | inconclusive: 22.4 µM [inhibitor, single point] |
| CCOC(=O)c1c(C)[nH]c(NC(=O)Nc2c(C)n(C)n(-c3ccccc3)c2=O)c1C | inconclusive: 39.8 µM [inhibitor, single point] |
| Clc1ccc(CNc2nc(CN3CCOCC3)nc3scc(-c4ccccc4)c23)cc1 | inactive |
| Cc1cc(C)cc(C(=O)Nc2ccc3[nH]c(=O)[nH]c3c2)c1 | inconclusive: 35.5 µM [inhibitor, single point] |
| CCc1nnc(NC(=O)c2cc(S(=O)(=O)N3CCCCC3)ccc2N2CCOCC2)s1 | inconclusive: 39.8 µM [inhibitor, single point] |
| [O-][n+]1onc2c1CCC(=N/O)/C2=N\Nc1ccccc1 | inactive |
| COc1ccc(C2N(c3ccc(F)cc3)C(=O)C3CCCN32)cc1 (configuration not stated) | inconclusive: 25.1 µM [inhibitor, single point] |
| CCN1/C(=C2\C(=O)N(C)C(=S)N2C)C=Cc2cc(OC)ccc21 | inconclusive: 31.6 µM [inhibitor, partial curve] |
| CN1CCN(NS(=O)(=O)c2ccc(Cl)s2)CC1 | inactive |
| COC(=O)c1c(NC(=O)CSc2nnc3ccccn23)sc2c1CCC2 | inconclusive: 39.8 µM [inhibitor, single point] |
| CCN1CCN(CC(=O)N2CCCC(C(=O)c3ccc(Oc4ccccc4)cc3)C2)CC1 (configuration not stated) | inactive |

| Structure (SMILES) | Potency |
| --- | --- |
| CCN1CCN(c2cc(C)c3cc(NC(=O)c4ccc(Br)o4)ccc3n2)CC1 | inactive |
| COc1cc(/C=N\NC(=O)CNC(=O)C2COc3ccccc3O2)ccc1O (configuration not stated) | inactive |
| CCOC(=O)Cc1c(C)nc2c(-c3ccc(Cl)cc3)cnn2c1C | inconclusive: 39.8 µM [inhibitor, single point] |
| O=C(CCC1CCCC1)NCCCN1CCOCC1 | inactive |
| Cc1ccc(C(c2c(O)nc3n(c2=O)CCS3)c2c(O)nc3n(c2=O)CCS3)cc1 | inactive |
| O=C(NCc1ccco1)c1ccc([N+](=O)[O-])o1 | inactive |
| CCOc1ccc(C(=O)CC(Sc2ccc(C)cc2)C(=O)O)cc1 (configuration not stated) | inactive |
| CN1[C@H](Cc2ccccc2)C=C[C@]1(C)C(=O)NCC1CC1 | inconclusive: 35.5 µM [inhibitor, single point] |
| CCn1c2ccc(/C(C)=N\O)cc2c2cc(/C(C)=N\O)ccc21 | inconclusive: 35.5 µM [inhibitor, single point] |
| O=C(O)CN1CCN(Cc2ccc(F)cc2Cl)C1=O | inconclusive: 31.6 µM [inhibitor, partial curve] |
| O=C(c1ccc2c(c1)OCO2)C1CCCN(Cc2cn[nH]c2-c2ccccc2)C1 (configuration not stated) | inconclusive: 28.2 µM [inhibitor, single point] |
| CCc1nc(SCc2ccc(F)cc2)[nH]c(=O)c1C#N | inactive |
| CN(C)/C=N/c1nc2nccc(-c3ccc(F)cc3)n2n1 | inconclusive: 28.2 µM [inhibitor, partial curve] |
| Cc1ccc(-n2nnnc2-c2cnc3ccc(Cl)cc3c2-c2ccccc2)cc1 | inactive |
| COc1ccccc1NC(=O)C1=C(C)NC(SCC(=O)c2ccc(C)cc2)=C(C#N)C1c1ccco1 (configuration not stated) | inconclusive: 39.8 µM [inhibitor, single point] |
| Cc1ccc(C)c(-n2nnnc2SCC(=O)c2ccc3c(c2)NC(=O)CO3)c1 | inactive |
| Cc1cc2ccccc2c(=O)n1CC(=O)NCc1ccco1 | inconclusive: 25.1 µM [inhibitor, partial curve] |
| N#Cc1c2c(c[nH]c1=O)CCN2Cc1ccccc1 | inconclusive: 31.6 µM [inhibitor, single point] |
| CCCN(CCC)S(=O)(=O)c1ccc(C(=O)NNC(=O)c2cc(OC)c(OC)c(OC)c2)cc1 | inconclusive: 22.4 µM [inhibitor, partial curve] |
| Fc1ccc(-n2cc(-c3ccccc3)c3c(N4CCOCC4)ncnc32)cc1 | inconclusive: 25.1 µM [inhibitor, single point] |
| Cc1ccccc1-c1ccc(C(=O)NCc2ccccc2)o1 | inconclusive: 28.2 µM [inhibitor, partial curve] |
| CCCNC(=O)c1ccc2c(=O)c(O)c(-c3ccc(OC)cc3)[nH]c2c1 | inconclusive: 35.5 µM [inhibitor, single point] |
| COc1cc(/C=C2\C(=O)N(c3ccc(S(N)(=O)=O)cc3)N=C2C)ccc1OC(=O)c1ccco1 | inconclusive: 39.8 µM [inhibitor, single point] |
